# Among all 360,000 compounds or so, about 11,000 (3.1%) were called active. The shares of active, inactive and inconclusive entries below differ from those in the screen. Calls come from the whole dose curve; as a rule, active = well fitted inhibition curve with a large enough effect; inconclusive = small, poorly fitted or top-dose-only effect; inactive = no such curve, though single readings can be large or run the other way. No potency is given beside an inconclusive call; the fits are too rough.
# Molecular target: Schistosoma mansoni thioredoxin glutathione reductase (TGR) (UniProt Q962Y6)
# Assay: qHTS Assay for the Inhibitors of Schistosoma Mansoni Peroxiredoxins; note: nearly all actives have a fitted effect of over 60% in size
# Conditions: purified TGR, DTNB reduction, TNB absorbance 405 nm; activity change, negative = inhibition: at 114 µM (top of the series) unless noted
# Method in brief: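 First, TGR (20 nM dispensed) and NADPH were mixed with compound. Second, a 15 min room-temperature incubation followed. Third, further NADPH and then DTNB were added to start the reaction. Finally, TNB absorbance was monitored kinetically.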
# % is set by controls: 0 for no effect and ±100 for the full control effect; potency is the fitted concentration of half-maximal effect; tags give direction and shape of the fitted curve.
SMILES,Potency,"activity change, negative = inhibition"
CCOC(=O)CSC1=NC(=O)CS1,active: 31.6 µM,
Cc1c(C)c2cc3c(c(C)c2oc1=O)OCN(CCc1ccccc1)C3,"inconclusive [inhibitor, partial curve]",
Cc1nc(-c2ccc(F)cc2)c(CC(=O)N2CCN(S(=O)(=O)c3cccc(Cl)c3)CC2)s1,"inconclusive [inhibitor, partial curve]",
COc1cc(CCC(=O)Nc2cnc3ccccc3c2)cc(OC)c1OC,,inactive: 5.15%
CCN(C(=O)Cn1c(=O)oc2cc(S(=O)(=O)N3CCCCC3)ccc21)c1ccccc1,,inactive: -3.96%
C(=N\N(c1ccccc1)c1ccccc1)/c1ccc(N2CCOCC2)s1,"inconclusive [inhibitor, partial curve, poor fit]",
CCOC(=O)c1c(NC(=O)CSc2nnc(C)o2)sc(C)c1C,"inconclusive [inhibitor, partial curve]",
CN1CCN(/N=C/c2c3ccccc3c(Cl)c3ccccc23)CC1,"inconclusive [inhibitor, partial curve]",
O=C(Nc1ccc(Oc2ccccc2)nc1)C1CCCCN1Cc1ccc(OCCO)cc1 (stereo not given),"inconclusive [inhibitor, full curve, poor fit]",
O=C(NCC1CCCO1)c1cccc(NC(=O)c2ccccc2)c1 (stereo not given),,inactive: 7.54%
O=C1NC(=S)N(c2ccccc2)C(=O)C1C(c1ccncc1)C1C(=O)NC(=S)N(c2ccccc2)C1=O (stereo not given),"inconclusive [inhibitor, full curve, poor fit]",
C=CCOc1cccc(C2/C(=C(/O)c3ccc(Cl)cc3)C(=O)C(=O)N2CCN2CCOCC2)c1 (stereo not given),"inconclusive [inhibitor, partial curve]",
CC(C)CN(CC(C)C)C1=N/C(=C\c2ccco2)C(=O)N1c1ccccc1,active: 6.31 µM,
CCc1ccc(CNC(=O)CC2C(=O)NCCN2Cc2ccccc2F)nc1 (stereo not given),"inconclusive [inhibitor, partial curve]",
CC1=NN(c2ccccc2)C(=O)/C1=C/c1c(O)n(-c2ccc(F)c(Cl)c2)[nH]c1=O,,inactive: -3.39%
CCOc1ccc(-c2cccc(NS(=O)(=O)c3cc([N+](=O)[O-])ccc3Cl)c2)nn1,,inactive: -3.04%
COc1ccc(OC)c(-n2cnc3cc(C(=O)O)ccc32)c1,"inconclusive [inhibitor, single point]",
CN(Cc1cccs1)C(=O)c1cc(S(=O)(=O)N2CCOCC2)ccc1N1CCCC1,"inconclusive [inhibitor, partial curve]",
CNC(=S)Nc1ccc(C)c(NC(=S)NC)c1,"inconclusive [inhibitor, single point]",
CC(NC(=O)CCl)c1ccccc1Br (stereo not given),active: 15.8 µM,
O=C(c1cccnc1)n1nc(-c2ccco2)nc1NCc1cccs1,"inconclusive [inhibitor, partial curve]",
CC(C)C(=O)NC(=S)Nc1ccccc1N1CCN(C(=O)c2ccc(Cl)cc2)CC1,"inconclusive [inhibitor, full curve, poor fit]",
Cn1c(=O)c2c(nc(CN3CCN(C(=O)c4ccco4)CC3)n2Cc2ccc(Cl)cc2)n(C)c1=O,"inconclusive [inhibitor, partial curve]",

SMILES,Potency,"activity change, negative = inhibition"
COc1cc(CN2CCC(C(=O)NC3CCCC3)CC2)cc(Br)c1O,"inconclusive [inhibitor, partial curve]",
O=C(CN1CCN(c2ccccc2F)CC1)c1ccc2cc[nH]c2c1,"inconclusive [inhibitor, partial curve, poor fit]",
C[n+]1ccn(CC(=O)c2ccc(Br)cc2)c1,,inactive: 10.6%
CC(=O)N(CN1C(=O)c2ccc([N+](=O)[O-])cc2C1=O)c1ccc(F)cc1,"inconclusive [inhibitor, partial curve]",
CCN(C(=O)CCS(=O)(=O)c1cccc2nonc12)c1ccc(F)cc1,"inconclusive [inhibitor, partial curve]",
CCn1cc(Cl)c(C(=O)Nc2cc(C(=O)OC)cc(C(=O)OC)c2)n1,,inactive: 5.69%
COC(=O)c1c(-c2ccco2)csc1NC(=O)C1CC=CCC1C(=O)O (stereo not given),active: 44.7 µM,
Cc1cccc(C(=O)NCC(c2ccco2)N(C)C)c1 (stereo not given),,inactive: -18.8%
COC(=O)c1ccc(CNC(=O)COc2ccccc2Br)o1,"inconclusive [inhibitor, partial curve]",
O=C(N/N=C/C=C/c1ccco1)c1cccnc1,active: 22.4 µM,
Cc1ccc(N2C(=O)NC(=O)/C(=C/c3ccoc3)C2=O)cc1,"inconclusive [inhibitor, partial curve, poor fit]",
COc1cc(CN2CCNC(=O)C2CC(=O)N(C)CCC2CCOCC2)cc(OC)c1 (stereo not given),"inconclusive [inhibitor, partial curve]",
O=C(CCC(=O)Nc1ccccc1)NCCO,,inactive: -3.61%
COc1ccc(C2CC(=O)N3CN(c4ccc(C)c(Cl)c4)CSC3=C2C#N)cc1 (stereo not given),active: 44.7 µM,
Cc1ccc(C2CC(c3ccco3)=NN2S(C)(=O)=O)cc1 (stereo not given),"inconclusive [inhibitor, partial curve]",
Cc1c(NC(=O)Nc2ccc(F)cc2F)c(=O)n(-c2ccccc2)n1C,"inconclusive [inhibitor, partial curve, poor fit]",
Fc1ccc(N/N=C/c2ccc(N3CCOCC3)cc2)c(F)c1,"inconclusive [inhibitor, partial curve]",
CC(=O)NCCC(=O)Nc1nc(-c2ccc3ccccc3c2)cs1,,inactive: 3.2%
Cc1ccc(C(=O)CCS(=O)(=O)c2ccc(Br)cc2)cc1,active: 0.398 µM,
Cc1cc(C(=O)CSc2nc3ccccc3c(=O)[nH]2)c(C)n1C,"inconclusive [inhibitor, full curve]",
Cc1ccc(-n2nc3c(c2NC(=O)c2cccs2)CS(=O)(=O)C3)c(C)c1,"inconclusive [inhibitor, partial curve]",
N#Cc1c(Oc2ccc3ccccc3c2)sc(C(=O)c2ccccc2)c1N,"inconclusive [inhibitor, partial curve]",

# Source: PubChem BioAssay AID485364 (National Center for Advancing Translational Sciences (NCATS), 2010)
